{"source": "the supplement of paper PMC4604168 (melanoma cell lines)", "note": "The list shows a part of the results. Many values rest on one well or one pass, so single values are uncertain.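 Further: cells treated in 1,536-well plates, then fixed and DAPI-stained, with nuclei counted from automated high-throughput microscope images.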"}
{"test_system": "A101D", "experiment": "cell count relative to DMSO control; melanoma cells; higher = more viable cells", "conditions": "library dose: standard library concentration; 72 h", "units": {"cell count": "%"}}
{"smiles": "NC(=O)c1ccc(N(C(N)=O)c2c(F)cccc2F)nc1-c1ccc(F)cc1F", "note": "+ C[C@@H]1CCN(C(=O)CC#N)C[C@@H]1N(C)c1ncnc2[nH]ccc12 [CP690550] (first compound 2 µM, partner dose 5 µM)", "cell count": 92.5}
{"smiles": "CC(C)(C)c1cnc(CSc2cnc(NC(=O)C3CCNCC3)s2)o1", "note": "+ O=C(O)c1ccc(-c2c[nH]c3ncc(-c4ccccc4)cc23)cc1C1CCCC1 [GSK650394] (first compound 0.05 µM, partner dose 0.8 µM)", "cell count": 102}
{"smiles": "CC(C)(C)c1cnc(CSc2cnc(NC(=O)C3CCNCC3)s2)o1", "note": "+ O=C(Nc1cccc(Cl)c1)Nc1ncc(CCNc2ncnc3ccsc23)s1 [SNS314] (first compound 0.05 µM, partner dose 0.004 µM)", "cell count": 90.2}
{"smiles": "NC(=O)c1ccc(N(C(N)=O)c2c(F)cccc2F)nc1-c1ccc(F)cc1F", "note": "+ Cc1cc([N+](=O)[O-])ccc1NS(=O)(=O)c1cc(Cl)ccc1Cl [FH535] (first compound 2 µM, partner dose 5 µM)", "cell count": 72.5}
{"smiles": "CCc1ccc(CCOc2ccc(CC3SC(=O)NC3=O)cc2)nc1", "note": "(stereo not given) [pioglitazone] + O=S(=O)(c1ccccc1)N(CC(F)(F)F)c1ccc(C(O)(C(F)(F)F)C(F)(F)F)cc1 [T0901317] (first compound 10 µM, partner dose 7 µM)", "cell count": 92.9}
{"smiles": "CCCCCCCCc1ccc(CCC(N)(CO)CO)cc1", "note": "[fingolimod] + Cn1cncc1[C@@](N)(c1ccc(Cl)cc1)c1ccc2c(c1)c(-c1cccc(Cl)c1)cc(=O)n2C [tipifarnib] (first compound 10 µM, partner dose 0.05 µM)", "cell count": 5.88}
{"smiles": "NC(=O)c1ccc(N(C(N)=O)c2c(F)cccc2F)nc1-c1ccc(F)cc1F", "note": "+ CC(=O)O[C@@]12CO[C@@H]1C[C@H](O)[C@@]1(C)C(=O)[C@H](O)C3=C(C)[C@@H](OC(=O)[C@H](O)[C@@H](NC(=O)OC(C)(C)C)c4ccccc4)C[C@@](O)([C@@H](OC(=O)c4ccccc4)[C@H]21)C3(C)C [Docetaxel] (first compound 2 µM, partner dose 0.0005 µM)", "cell count": 41.6}
{"smiles": "CCCCCCCCc1ccc(CCC(N)(CO)CO)cc1", "note": "[fingolimod] + CN(C)S(=O)(=O)c1ccc2c(c1)/C(=C/c1cc3c([nH]1)CCCC3)C(=O)N2 [SU6656] (first compound 10 µM, partner dose 2 µM)", "cell count": 4.51}
{"smiles": "Cc1ccc(NC(=O)c2cccc(N(C)C)c2)cc1NC(=O)c1ccc(O)cc1", "note": "+ c1cc(-c2cnn3cc(-c4ccc(OCCN5CCCCC5)cc4)cnc23)ccn1 [Dorsomorphin] (first compound 10 µM, partner dose 2 µM)", "cell count": 79.2}
{"smiles": "CC(C)(C)c1cnc(CSc2cnc(NC(=O)C3CCNCC3)s2)o1", "note": "+ Cn1cncc1[C@@](N)(c1ccc(Cl)cc1)c1ccc2c(c1)c(-c1cccc(Cl)c1)cc(=O)n2C [tipifarnib] (first compound 0.05 µM, partner dose 0.05 µM)", "cell count": 50.1}
{"smiles": "NC(=O)c1ccc(N(C(N)=O)c2c(F)cccc2F)nc1-c1ccc(F)cc1F", "note": "+ Nc1ncn([C@H]2C[C@H](O)[C@@H](CO)O2)c(=O)n1 [decitabine] (first compound 2 µM, partner dose 0.5 µM)", "cell count": 110}
{"smiles": "Cc1ccc(NC(=O)c2cccc(N(C)C)c2)cc1NC(=O)c1ccc(O)cc1", "note": "+ CC(C)CCN1c2nc(Nc3cc(F)c(O)c(F)c3)ncc2N(C)C(=O)C1C [BID1870] (first compound 10 µM, partner dose 1 µM)", "cell count": 53.6}
{"smiles": "CCCCCCCCc1ccc(CCC(N)(CO)CO)cc1", "note": "[fingolimod] + C[C@]1(c2nc3c(C(N)=O)cccc3[nH]2)CCCN1 [Veliparib] (first compound 10 µM, partner dose 7 µM)", "cell count": 17.2}
{"smiles": "CN(NC(=O)CC(=O)NN(C)C(=S)c1ccccc1)C(=S)c1ccccc1", "note": "+ O=S(=O)(c1ccccc1)N(CC(F)(F)F)c1ccc(C(O)(C(F)(F)F)C(F)(F)F)cc1 [T0901317] (first compound 0.03 µM, partner dose 7 µM)", "cell count": 41.8}
{"smiles": "CN(NC(=O)CC(=O)NN(C)C(=S)c1ccccc1)C(=S)c1ccccc1", "note": "+ Oc1nc(-c2ccc(C(F)(F)F)cc2)nc2c1CSCC2 [XAV939] (first compound 0.03 µM, partner dose 10 µM)", "cell count": 52.7}
{"smiles": "CC(C)(C)c1cnc(CSc2cnc(NC(=O)C3CCNCC3)s2)o1", "note": "+ CN(NC(=O)CC(=O)NN(C)C(=S)c1ccccc1)C(=S)c1ccccc1 [STA4783] (first compound 0.05 µM, partner dose 0.03 µM)", "cell count": 41.5}
{"smiles": "CC(C)(C)c1cnc(CSc2cnc(NC(=O)C3CCNCC3)s2)o1", "note": "+ NC(=O)Nc1cc(-c2cccc(F)c2)sc1C(=O)N[C@H]1CCCNC1 [AZD7762] (first compound 0.05 µM, partner dose 0.1 µM)", "cell count": 50.2}
{"smiles": "NC(=O)c1ccc(N(C(N)=O)c2c(F)cccc2F)nc1-c1ccc(F)cc1F", "note": "+ CN(c1ncccc1CNc1nc(Nc2ccc3c(c2)CC(=O)N3)ncc1C(F)(F)F)S(C)(=O)=O [PF562271] (first compound 2 µM, partner dose 0.4 µM)", "cell count": 75.1}
{"smiles": "CCCCCCCCc1ccc(CCC(N)(CO)CO)cc1", "note": "[fingolimod] + Cn1c(Nc2ccc(C(F)(F)F)cc2)nc2cc(Oc3ccnc(-c4ncc(C(F)(F)F)[nH]4)c3)ccc21 [CHIR265] (first compound 10 µM, partner dose 0.4 µM)", "cell count": 3.5}
{"smiles": "CCc1ccc(CCOc2ccc(CC3SC(=O)NC3=O)cc2)nc1", "note": "(stereo not given) [pioglitazone] + Cn1cc(/C=C2\\C(=O)Nc3cccnc32)c2ccccc21 [GW441756] (first compound 10 µM, partner dose 2 µM)", "cell count": 103}
